Measurements: PubChem BioAssay AID1346428 (National Center for Advancing Translational Sciences (NCATS), 2018)
Several values for one entry are separate records, joined by “and”; a condition that tells them apart may be missing. Identical values can stand only once. The campaign covered roughly 48,000 compounds. About 1,200 (2.5%) were called active. About 2% were inconclusive and are not listed.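 Rule for the calls: active = activation of at least 60% and not above a set upper limit (about 1 call in 100 departs from these limits); inconclusive = activation of 40% to 60%, or above that upper limit; inactive = activation under 40%.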 The list shows a part of the results.
Note: 0% is about no effect.

The compounds below were run against Probable G-protein coupled receptor 32 (Homo sapiens) (UniProt O75388) (assay: qHTS for Agonists of Human Resolvin D1 Receptor DRV1). Settings: CHO-K1 GPR32 beta-arrestin PathHunter luminescence, 90 min; at 76.9 µM; hits give high values; zero percent set by DMSO-only wells.
UniProt O75388, sequence (O75388 whole entry, looked up): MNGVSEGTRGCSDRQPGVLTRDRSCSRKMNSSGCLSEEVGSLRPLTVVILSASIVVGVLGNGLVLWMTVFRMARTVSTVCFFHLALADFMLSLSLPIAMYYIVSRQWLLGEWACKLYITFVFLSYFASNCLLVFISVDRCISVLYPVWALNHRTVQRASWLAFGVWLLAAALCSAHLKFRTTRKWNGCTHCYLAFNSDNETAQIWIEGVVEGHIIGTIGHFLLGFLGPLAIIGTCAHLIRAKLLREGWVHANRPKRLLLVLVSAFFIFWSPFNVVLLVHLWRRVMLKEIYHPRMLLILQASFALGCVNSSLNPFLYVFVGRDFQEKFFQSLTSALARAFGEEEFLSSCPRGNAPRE
Summary of the method: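 Engineered CHO-K1 line co-expressing GPR32-ProLink and EA-beta-arrestin. Compound treatment lasted 90 min at 37 °C. Luminescence was recorded after 1 h with substrate at ambient temperature, relative to DMSO basal wells.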
For `CCCCNC(=O)c1cccc(-n2c(C)nc3cccnc32)c1`, the activation was inactive: -0.114%.
With `Fc1ccc2c(c1)-c1nc(-c3ccccc3)cc(-c3ccccc3)c1CO2` the activation was inactive: 37.5%.
With `Cc1c(NC(=O)Nc2ccccc2C(F)(F)F)sc2nc3n(c(=O)c12)CCC(C)CC3` (stereo not given) the activation was inactive: -3.24%.
`CCOc1cc(C(=O)N2CCn3c4c(c5cc(C)ccc53)CCCC42)cc(OCC)c1OCC` (stereo not given) was tested, and the activation was inactive: -7.57%.
`COc1ccc(N(C(=O)c2cccc(C)c2)S(=O)(=O)c2ccc(Cl)cc2)cc1` was tested, and the activation was inactive: -0.276%.
For `CC(C)CCNC(=O)c1cnc2sc(N3CCCCC3)nn2c1=O`, the activation was inactive: 48.5%.
With `Cc1ccc(Cl)cc1N(C)C(=O)c1cn(C2CCCCC2)c(=O)c2c1c1ccccc1n2C` the activation was inactive: -1.5%.
`CC(=O)C1=C(c2ccc(Cl)cc2)N(C(C)=O)n2c(nnc2C2CCCCC2)S1` was tested, and the activation was inactive: -19.5%.
For `Oc1ccc(/C=C/c2cc(O)cc(O)c2)cc1`, the activation was inactive: -4.27% and inactive: -1.15%.
`CCN(Cc1ccccc1)S(=O)(=O)c1ccc2c(c1)CC(C)N2C(=O)C1CCC1` (stereo not given) was tested, and the activation was inactive: -6.13%.
With `Cc1ccc(N(CC(=O)Nc2cccc(Cl)c2)S(=O)(=O)c2cccs2)cc1` the activation was inactive: -15.4%.
For `O=c1c2oc3ccccc3c2n(Cc2ccccc2F)c(=O)n1Cc1ccccc1`, the activation was inactive: -4.56%.
For `Cc1ccc2onc(CC(=O)Nc3ccc(C(C)C)cc3)c2c1`, the activation was inactive: 6.01%.
In the case of `Cc1ccc2c(c1)N(CCC(=O)NCc1ccccc1Cl)C(=O)CO2`, the activation is reported as inactive: -7.42%.
`COc1cccc(CNC(=O)c2cc3c(=O)oc4ccc(C)cc4c3s2)c1` was tested, and the activation was inactive: 3.01%.
In the case of `CC(=O)N1CCC(N(Cc2ccc(C)o2)C(=O)Nc2ccc(C)cc2)CC1`, the activation is reported as inactive: -3.09%.
`COc1ccc(-c2nnc(SCc3cccc(Cl)c3)o2)cc1` was tested, and the activation was inactive: -2.59%.
`Cn1c(=O)[nH]c(=O)c2c1nc(NCCc1ccccc1)n2Cc1ccc(F)cc1` was tested, and the activation was inactive: -1.91%.
`CCOc1ccc(OCC)c(NS(=O)(=O)c2ccc(-c3coc(C)n3)cc2)c1` was tested, and the activation was inactive: 3.22%.
For `Cc1cc(NC(=O)Nc2nnc(N(C)Cc3ccccc3)s2)ccc1Br`, the activation was inactive: -13.4%.
For `Cc1ccc(O)c(NC(=O)c2cc(-c3ccccc3O)no2)c1`, the activation was inactive: -10.3%.
In the case of `Cn1cc(S(=O)(=O)N2CCOCC2)cc1C(=O)Nc1ccc(Cl)c(C(F)(F)F)c1`, the activation is reported as inactive: 13.3%.
`COc1cc(NC(=O)c2cn(C3CCCC3)c(=O)c3c2c2ccccc2n3C)cc(OC)c1OC` was tested, and the activation was inactive: 4.11%.
With `Cn1cnc2c(=O)oc3ccc(S(=O)(=O)Nc4ccc(F)cc4)cc3c21` the activation was inactive: 1.58%.
For `CCOc1ccc2nc(NC(=O)c3nc(SC)ncc3Cl)sc2c1`, the activation was inactive: 11.1%.
With `CCOc1ccccc1NC(=O)Cc1noc2ccc(C)cc12` the activation was inactive: 1.45%.
In the case of `COc1ccc(CNCCC(c2ccccc2)c2ccc3c(c2)OCO3)cc1` (stereo not given), the activation is reported as inactive: 11.7%.
In the case of `Cc1cc(Br)ccc1NC(=O)c1ccc(NS(=O)(=O)c2c(C)noc2C)cc1`, the activation is reported as active: 63.8%.
With `COc1ccccc1NC(=O)NCc1cccn1Cc1ccccc1` the activation was inactive: -3.78%.
In the case of `CCCC1=Nc2cc(C(=O)NCCc3ccccc3)ccc2Sc2ccc(C)cc21`, the activation is reported as inactive: -0.374%.
For `CCOc1ccc(NC(=O)/C=C\C(=O)N(c2ccc(C(C)C)cc2)C(C(=O)NCc2ccco2)c2ccc(F)cc2)cc1` (stereo not given), the activation was inactive: -11.5%.
With `COc1ccc(-c2cnn3c(C)cc(C)nc23)cc1OC` the activation was inactive: -10.4%.
For `CCOc1ccc(-c2nc(SCC(=O)NC3CCCC3)c(-c3ccccc3)[nH]2)cc1OC`, the activation was inactive: -26.5%.
In the case of `COc1cccc(-c2nc(SCC(=O)NC3CCCC3)c(-c3ccccc3)[nH]2)c1`, the activation is reported as inactive: -19.1%.
`COc1ccc(NC(=O)Cn2cnc3ccc(S(=O)(=O)N4CCC(C)CC4)cc3c2=O)cc1OC` was tested, and the activation was active: 113%.
For `CCOc1ccc(CCNC(=O)CSc2cc(=O)n(C)c3cc(Cl)ccc23)cc1OCC`, the activation was inactive: -1.62%.
In the case of `Cc1ccc(-c2noc(CCCC(=O)NCc3ccco3)n2)cc1`, the activation is reported as inactive: 10.9%.
`O=C(CSc1nc(-c2cccs2)nc2cc(=O)[nH]n12)Nc1ccccc1F` was tested, and the activation was inactive: 20%.
With `CSc1ccc(CCNC(=O)CN2C(=O)c3cccnc3Oc3ccc(Cl)cc32)cc1` the activation was inactive: -5.53%.
`CCOc1ccc(CCNC(=O)CCc2c(C)nc3cc(-c4ccccc4OC)nn3c2C)cc1` was tested, and the activation was inactive: -9.91%.
With `CCCCn1c(NCc2cc(Cl)ccc2O)nc2ccccc21` the activation was active: 102%.
In the case of `Nc1c(-c2nc(-c3ccc4c(c3)OCO4)cs2)c2ccccn2c1C(=O)c1ccccc1`, the activation is reported as inactive: 17.3%.
`COc1cc(C(=O)N2CCc3c([nH]c4ccccc34)C2c2ccc(C)cc2)cc(OC)c1OC` (stereo not given) was tested, and the activation was inactive: -31.4%.
`CCC(=O)N1CCc2cc(S(=O)(=O)NC(Cc3ccccc3)C(=O)Nc3cccc(OC)c3)ccc21` (stereo not given) was tested, and the activation was inactive: -2.35%.
For `Cc1cccc(N(C)c2ccc3cc(S(=O)(=O)N4CCCC4)ccc3n2)c1`, the activation was inactive: -14.5%.
`Cc1ccc2c(c1)c(N1CCCC1=O)c(C(=O)Nc1ccc(F)cc1F)n2C` was tested, and the activation was inactive: 2.29%.
`O=C(C1CCCN(S(=O)(=O)c2cccc3nsnc23)C1)N1CCN(c2ccccc2Cl)CC1` (stereo not given) was tested, and the activation was inactive: -3.32%.
In the case of `O=C(CCCCCn1c(=O)[nH]c2ccccc2c1=O)NCc1ccccc1`, the activation is reported as inactive: -18.4%.
`Cc1ccc(C)c(NC(=O)CSC2=Nc3ccccc3N=C(c3ccc(F)cc3)C2)c1` was tested, and the activation was inactive: -7.64%.
In the case of `CCOC(=O)c1cc(S(=O)(=O)N2CCN(c3ccc(C)cc3C)CC2)[nH]n1`, the activation is reported as inactive: -10.8%.
For `Cc1ccc(-c2nnc3c4ccccc4c(C)nn23)cc1NC(=O)c1ccccc1Cl`, the activation was inactive: -2.9%.
In the case of `Cc1ccc(S(=O)(=O)c2nnn3c2nc(N2CCCC2)c2sccc23)cc1`, the activation is reported as inactive: -2.46%.
`COc1cccc(N2CCN(c3ncnc4onc(-c5ccc(F)cc5)c34)CC2)c1` was tested, and the activation was inactive: -0.163%.
In the case of `Cc1nc2scc(C)n2c(=O)c1S(=O)(=O)N1CCN(c2cccc(C(F)(F)F)c2)CC1`, the activation is reported as inactive: 5%.
`CN(C)c1ccc(NC(=O)Cn2cc(S(=O)(=O)Cc3cccc(Cl)c3)c3ccccc32)cc1` was tested, and the activation was inactive: -18.1%.
`COc1ccc(N2CC(NC(=O)c3cc4ccccc4o3)CC2=O)cc1` (stereo not given) was tested, and the activation was inactive: -3%.
With `CC(=O)c1cc(-c2ccccc2)n(CCC(=O)Nc2ccc(C)cc2C)c1C` the activation was inactive: -4.35%.
For `COc1ccccc1CNC(=O)CCC1N=C2c3ccccc3N=C(SCc3ccc(C)cc3)N2C1=O` (stereo not given), the activation was inactive: -40.7%.
In the case of `Cc1cc(C(=O)NCc2ccc(Cl)cc2)c2c(C)nn(-c3ccccc3)c2n1`, the activation is reported as inactive: -7.17%.
For `COc1ccc(CCC(=O)NCCc2csc(-c3ccc(C(F)(F)F)cc3)n2)cc1`, the activation was inactive: 23%.
For `CCCc1nnc(NC(=O)c2cc(=O)c3cc(Cl)ccc3o2)s1`, the activation was inactive: 7.69%.
In the case of `CC1Cc2cc(S(=O)(=O)NCCc3ccccc3)ccc2N1C(=O)C1CCC1` (stereo not given), the activation is reported as inactive: 25.7%.
For `CS(=O)(=O)N1CCc2cc(C(=O)N3CCN(c4ccccc4)CC3)ccc21`, the activation was inactive: -4.12%.
`CC1CCC(N2CC(=O)N(C3CCCCC3)C(c3ccc(F)cc3)C2=O)CC1` (stereo not given) was tested, and the activation was inactive: -27.7%.
With `Cc1ccc2c(c1)N(C(=O)Nc1cccc(C)c1C)CCO2` the activation was inactive: -24.6%.
For `O=C(COc1ccccc1[N+](=O)[O-])Nc1cccc(-c2nc3ccccc3s2)c1`, the activation was active: 83.7%.
In the case of `COc1ccc(N(CC(=O)Nc2cc(C)ccc2C)S(=O)(=O)c2ccc(OC)c(OC)c2)cc1`, the activation is reported as inactive: -1.46%.
For `Cn1c(=O)c2c(nc(Oc3ccccc3)n2Cc2c(Cl)cccc2Cl)n(C)c1=O`, the activation was inactive: 0.241%.
For `COCCCNC(=O)CSc1nc2cc3c(cc2c(=O)n1CCCC(=O)NCc1ccc(OC)cc1)OCO3`, the activation was inactive: -14.4%.
In the case of `CCOc1ccc(NC(=O)CN2C(=O)COc3ccc(S(=O)(=O)NC4CCCC4)cc32)cc1`, the activation is reported as inactive: 1.42%.
With `COc1cc(NC(=O)CSc2nc3nc(C)c(Cc4ccc(C)cc4)c(C)n3n2)cc(OC)c1OC` the activation was inactive: 11.4%.
`O=C(Nc1ccc(F)cc1F)c1ccc2c(O)c(S(=O)(=O)c3ccc(Cl)cc3)c(=O)[nH]c2c1` was tested, and the activation was inactive: 2.07%.
With `CCc1ccc(C2c3c(oc4ccc(F)cc4c3=O)C(=O)N2c2nc(C)c(C(=O)OC)s2)cc1` (stereo not given) the activation was inactive: -10.1%.
With `O=C(Nc1c(C(=O)O)oc2ccccc12)c1ccc(C(F)(F)F)cc1` the activation was inactive: -18.4%.
With `O=C(COCc1cc(-c2ccc3c(c2)OCO3)on1)NCc1ccccc1Cl` the activation was inactive: -17.9%.
`O=C(CSc1cn(CC(=O)N2CCOCC2)c2ccccc12)Nc1ccccc1` was tested, and the activation was inactive: -5.99%.
For `CCOc1ccc(C(=O)Nc2ccc(S(=O)(=O)Nc3nc(C)cc(C)n3)cc2)cc1OC`, the activation was inactive: -4.88%.
`COc1ccccc1OCC(=O)NCc1nc(-c2ccc(Cl)cc2)no1` was tested, and the activation was inactive: -14.2%.
`NC(=O)c1ccc2[nH]ccc2c1` was tested, and the activation was inactive: -5.19%.
For `O=C(COc1ccccc1)Nc1ccccc1OCc1cc(=O)n2ccccc2n1`, the activation was inactive: -4.64%.
For `Cc1ccccc1Cc1c(C)nc2nc(SCC(=O)NCCc3ccc(Cl)cc3)nn2c1C`, the activation was inactive: -1.53%.
In the case of `CC1=C(c2ccc(C)c(C)c2)S(=O)(=O)N(Cc2ccc(C(=O)NC(C)c3ccccc3)cc2)C1=O` (stereo not given), the activation is reported as inactive: -0.735%.
`Cc1ccc(C)c(OCC(=O)Nc2ccc(S(=O)(=O)Nc3onc(C)c3C)cc2)c1C` was tested, and the activation was inactive: 13.1%.
For `CCC(C(=O)Nc1ccccc1OC)n1nc(C)c2sc3ccccc3c2c1=O` (stereo not given), the activation was inactive: -15.8%.
With `CCCc1c(-c2ccc(O)cc2)nn(-c2ccc(O)cc2)c1-c1ccc(O)cc1` the activation was inactive: 5.36%.
